Data reported in the antibiotic and cytotoxicity screens of Wong et al. (2023).
The other results are listed elsewhere or left out.

How the values were obtained:
HSkMC = human skeletal muscle cells; test: cytotoxicity call (relative viability < 0.9); details: 10 µM
HepG2 = test: cytotoxicity call (relative viability < 0.9); details: 10 µM
S. aureus RN4220 = test: growth inhibition call (relative growth <= 0.2); details: 50 µM

| Compound | cytotoxicity call (HSkMC) | cytotoxicity call (HepG2) | growth inhibition call (S. aureus RN4220) |
| --- | --- | --- | --- |
| COc1ccc2c(-c3ccc(Cl)cc3)c(C)oc2c1 | inactive | active | inactive |
| COCC(=O)Nc1ccc2c(c1)C(=O)N(C)C[C@H](OC)[C@H](C)CN(Cc1ccccc1F)[C@H](C)CO2 | inactive | inactive | inactive |
| C[C@@H]1CN([C@@H](C)CO)C(=O)Cc2cc(NC(=O)Nc3cccc4ccccc34)ccc2O[C@@H]1CN(C)Cc1ccc(C(=O)Nc2ccccc2N)cc1 | inactive | inactive | inactive |
